Test results published in PubChem BioAssay AID1159614 (National Center for Advancing Translational Sciences (NCATS), 2016).
The campaign covered roughly 45,000 compounds. About 65 (0.1%) were called active. Calls follow the shape of the dose curve; as a rule, active = well fitted activation curve with a large enough effect; inconclusive = small, poorly fitted or top-dose-only effect; inactive = no such curve, though single readings can be large or run the other way. Some of the results follow.

These molecules were tested against Galactocerebrosidase (Homo sapiens) (UniProt P54803) (assay: A Novel Cell-Based Assay to Identify Small Molecules for B -Galactocerebrosidase). Settings: 145M-Twi-hGALC-G270D cells (Twitcher mouse brain line with human GALC G270D), HMU-beta-Gal fluorescence, 48 h; series mostly up to 57.5 µM; activation: at the top concentration.
How it was run: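 Mutant human GALC (G270D), stably expressed in a Twitcher mouse brain cell line lacking endogenous GALC, is measured in live-treated cells via 6-hexadecanoylamino-4-methylumbelliferyl-β-galactoside hydrolysis (0.1 mM final, pH 5.2) with fluorescent detection.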
Also: 0% is about no effect; nearly all actives have a fitted effect of over 65% in size.

Chain of UniProt P54803 (P54803 whole entry, looked up): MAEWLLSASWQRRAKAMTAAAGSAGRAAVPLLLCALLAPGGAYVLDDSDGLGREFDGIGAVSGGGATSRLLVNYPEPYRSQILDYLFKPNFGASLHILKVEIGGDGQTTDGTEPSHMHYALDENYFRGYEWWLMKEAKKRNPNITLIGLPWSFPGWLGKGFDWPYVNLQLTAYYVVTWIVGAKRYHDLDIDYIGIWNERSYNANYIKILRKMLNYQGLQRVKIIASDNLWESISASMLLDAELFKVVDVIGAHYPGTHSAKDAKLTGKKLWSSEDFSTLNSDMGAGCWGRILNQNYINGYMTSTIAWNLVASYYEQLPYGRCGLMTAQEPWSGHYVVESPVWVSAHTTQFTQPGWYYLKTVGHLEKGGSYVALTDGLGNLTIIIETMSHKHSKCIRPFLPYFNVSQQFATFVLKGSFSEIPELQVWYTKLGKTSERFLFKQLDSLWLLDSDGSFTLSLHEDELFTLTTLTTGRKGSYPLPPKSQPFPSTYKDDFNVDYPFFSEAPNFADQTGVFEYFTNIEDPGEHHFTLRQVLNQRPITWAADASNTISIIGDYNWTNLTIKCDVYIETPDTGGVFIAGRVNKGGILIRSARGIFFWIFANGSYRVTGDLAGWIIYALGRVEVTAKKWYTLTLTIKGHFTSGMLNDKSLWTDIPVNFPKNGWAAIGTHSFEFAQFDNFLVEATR

activation, inactive:
CCc1ccc(-n2nnc(-c3nc(-c4ccc(C)cc4)no3)c2N)cc1 -20.8%
COc1cc(Cl)c(C)cc1NC(=O)Cn1c2ncccc2c(=O)n1-c1ccccc1 -19.9%
CCc1ccc(NC(=O)CSc2nc3c(c(=O)[nH]2)CN(Cc2ccc(C)cc2)CC3)cc1 -15.5%
CCOc1ccccc1C(=O)NCC(c1cccs1)S(=O)(=O)c1ccc(F)c(C)c1 (stereo not given) -9.25%
O=C(NCc1ccc(Cl)cc1)C1CCN(c2ncnc3c2nc2n3CCCCC2)CC1 -6.08%
COc1ccc(Cn2c(=O)n(-c3ccc(OC)cc3)c(=O)c3c2c2cc(OC)ccc2n3C)cc1 -17.8%
CCOC(=O)c1noc2ncnc(N3CCN(c4cccc(C(F)(F)F)c4)CC3)c12 0.837%
CC1CCN(C(=O)Cn2cc(SCC(=O)Nc3ccccc3)c3ccccc32)CC1 -6.01%
COc1cccc(-c2nc(SCC(=O)NCc3ccco3)c3c(=O)n(C)c(=O)n(C)c3n2)c1 -15.1%
COc1ccc(-n2c(SCc3ccccc3F)nc3c([nH]c4ccccc43)c2=O)cc1OC -3.01%
COc1cc(NC(=O)c2c3c(nc4ccccc24)C(=O)N(C2CCCCC2)C3)cc(OC)c1 -15.4%
CCOC(=O)c1c(-c2ccc(C)cc2)csc1NC(=O)c1cc(=O)c2cc(C)cc(C)c2o1 -23%
O=C(CSc1c2c(nc3cc(Cl)ccc13)CCCC2)N1CCN(c2ccccc2)CC1 -16.5%
CCN(CC)S(=O)(=O)c1ccc2c(c1)c(=O)c(C(=O)NCc1ccccc1Cl)cn2C -2.84%
COc1ccc(-c2cc(C)no2)cc1S(=O)(=O)NCc1ccco1 -3.82%
CC(=O)c1ccc(NC(=O)C2=CC(c3ccc(C)cc3)=NS(=O)(=O)N2C)cc1 -14.4%
CCCn1cc(S(=O)(=O)c2ccc(OC)cc2)c(=O)c2cc(F)c(N3CCCC(C)C3)cc21 (stereo not given) -11.4%
Cc1ccc(S(=O)(=O)Cc2nc(-c3ccc(C(=O)NCc4ccccc4C)cc3)oc2C)cc1 2.9%
COc1ccc(Cn2ccn(Cc3cccc(Cl)c3)c(=O)c2=O)cc1 -17.2%
CCOc1ccc(-c2nonc2NC(=O)c2oc3ccc(C)cc3c2C)cc1OCC -14.5%
CCCCCOC(=O)CSc1nc2sc3c(c2c(=O)n1-c1ccccc1)CC(C)(CC)OC3 (stereo not given) -9.81%
O=C(Nc1cc(-c2ccccc2F)nn1-c1ccccc1)c1ccccc1Br -2.95%
O=C(COc1ccccc1F)Nc1c(C(=O)Nc2cccc(F)c2)oc2ccccc12 -11.1%
Cc1ccc(C(=O)Nc2nc3nc(-c4ccccc4)cc(=O)n3[nH]2)cc1 -7.55%
COC(=O)CCCCCn1c(-c2ccccc2)cn2c3c(=O)n(C)c(=O)n(C)c3nc12 -1.59%
CCN(CC)c1ccc(C2C(C(=O)Nc3ccccc3C)=C(C)Nc3ncnn32)cc1 (stereo not given) -6.52%
O=C(NCc1ccccc1Cl)c1c2c(nc3ccccc13)C(=O)N(C1CCCCC1)C2 -19.9%
CCCCC(=O)Nc1ccc(OCc2cc(=O)n3c(C)csc3n2)cc1 -15.1%
Cc1ccc(C)c(N2CCN(CCCNC(=O)c3cnn(-c4ccccc4)c3C3CCN(C(=O)OC(C)(C)C)CC3)CC2)c1 2.77%
CCN(Cc1ccccc1)Cc1c(O)ccc2c(=O)c(-c3ccc(Cl)cc3)c(C(F)(F)F)oc12 -0.184%
Cc1ccn2c(=O)cc(CSc3nnc(C)s3)nc2c1 0.0406%
COc1ccc(OC)c(C(=O)CSc2ncc3c(n2)-c2ccccc2N(Cc2ccccc2C)S3(=O)=O)c1 -10.4%
Cc1cccc(CCn2c(=O)c3ccccc3n(CC(=O)Nc3ccccc3F)c2=O)c1 -1.96%
Cc1cc2c(cc1NC(=O)c1ccccc1Cl)n(C)c(=O)c(=O)n2C -3.42%
Cc1ccc2nc(-c3ccsc3)c(Nc3ccc(Cl)cc3)n2c1 -13.3%
COc1ccc(-c2nnc(SCC(=O)N3CCc4ccccc43)o2)cc1OC -11.4%
CCN(CC)CCCNC(=O)c1cn(CC(C)C)c(=O)c2c1c1ccccc1n2C -10.3%
Cc1ccn2cc(CNC(=O)c3cccc(C(F)(F)F)c3)nc2c1 -2.12%
Cc1cccc(-c2noc(-c3ccccc3OCC(=O)Nc3ccccc3[N+](=O)[O-])n2)c1 -6.33%
COc1ccccc1Nc1c2c(nc3ccc(NC(=O)c4ccccc4F)cc13)CCCC2 -15.7%
CCOC(=O)c1ccc(NC(=O)C(C)Sc2nc(=O)cc(N)n2CCc2ccccc2)cc1 (stereo not given) -7.26%
COc1ccc(OCC(=O)N(Cc2sccc2C)C2CCS(=O)(=O)C2)cc1 (stereo not given) -6.76%
CC(=O)c1cccc(NC(=O)[C@H]2O[C@@H]3OC(C)(C)O[C@@H]3[C@H]3OC(C)(C)O[C@H]32)c1 -17.4%
COc1ccc(-c2nc3scc(CCNS(=O)(=O)c4ccc(Oc5ccccc5)cc4)n3n2)cc1 -12.3%
Cc1ccc(C)c(NC(=O)N2CCN3CCCCC3C2)c1 (stereo not given) -29.3%
COc1ccc(F)cc1S(=O)(=O)Nc1ccc2c(c1)CCCN2C(=O)c1cccs1 16.6%
COc1ccc(C(=O)CCC(=O)Nc2ccc(F)cc2F)cc1 -5.23%
O=C(Nc1ccc(F)cc1F)c1cc(S(=O)(=O)N2CCCCC2)c[nH]1 -6.63%
CCN(CC)C(=O)Cn1c(=O)n(Cc2ccc(C(=O)NCCCOC)cc2)c(=O)c2ccccc21 -9.52%
CCn1c2c(c(=O)n3ncc(C(=O)N4CCN(c5ccc(C(C)=O)cc5)CC4)c13)CN(Cc1ccc(OC)cc1)CC2 -6.37%
Cc1ccc(C)c(N2C(=O)N(Cc3cccc(C(F)(F)F)c3)c3ccccc3S2(=O)=O)c1 5.8%
NS(=O)(=O)c1ccc(NC(=O)COc2ccc(S(=O)(=O)NC3CCCCC3)cc2)cc1 -14.4%
COC(=O)c1sccc1S(=O)(=O)N(CC(=O)NCc1ccc(C)cc1)c1ccc(C)c(C)c1 -11.5%
CCOC(=O)CSc1nc2cc(OC)c(OC)cc2c2nc(-c3ccccc3)nn12 -2.53%
CC(=O)c1c(C)oc2c1cc(NS(=O)(=O)c1c(C)cc(C)cc1C)c1ccccc12 -3.48%
CCOC(=O)C1=C(C)N=C2SCCC(=O)N2C1c1ccc(OCc2ccccc2)c(OC)c1 (stereo not given) -10.2%
Cc1cc(NC(=O)c2cc(Cl)ccc2Cl)ccc1-c1cc2ccccc2oc1=O -15.4%
CCOc1ccc(S(=O)(=O)Nc2cccc(OC)c2)c2cccnc12 3.65%
O=C1CS(=O)(=O)C2(C(=O)N(Cc3ccccc3)c3ccccc32)N1c1ccc(F)c(Cl)c1 (stereo not given) -24.2%
COc1ccc(NS(=O)(=O)c2ccc3[nH]c(=O)ccc3c2)cc1OC -17.7%
COc1cccc(-n2nnc(-c3nc(-c4cccs4)no3)c2N)c1 -11%
COc1cc(OC)cc(C(=O)Nc2ccc3nc4n(c(=O)c3c2)CCCCC4)c1 -0.7%
COc1ccccc1C(=O)Oc1c(Sc2ccccc2)c(C)nn1-c1ccccc1 -19.6%
COc1ccc(S(=O)(=O)N(CC(=O)Nc2ccccc2Cl)Cc2ccccc2)cc1 -35.9%
Cc1ccc(CCNC(=O)CN2C(=O)COc3ccc(S(=O)(=O)N4CCCCCC4)cc32)cc1 9.31%
Cc1ccccc1OCc1nc2ccccc2n1Cc1ccccc1Cl -9.52%
COc1ccc(C2=NS(=O)(=O)N(C)C(C(=O)N(C)Cc3ccccc3)=C2)cc1OC -8.89%
Cc1cccc(Nc2ccncc2S(=O)(=O)NC(=O)NC(C)C)c1 -13.8%
CCS(=O)(=O)N1CCc2cc(C(=O)Nc3cccc(C(C)=O)c3)ccc21 -11.7%
CCCCN(CC)C(=O)CCNS(=O)(=O)c1ccc2c(c1)c(=O)n(C)c(=O)n2C -15.9%
CCCOc1cccc(C2c3c(-c4ccccc4O)n[nH]c3C(=O)N2Cc2ccco2)c1 (stereo not given) -16.7%
CC(C)CCn1c(Oc2ccccc2F)nc2c1c(=O)n(C)c(=O)n2C -5.47%
CC(=O)c1ccc(NC(=O)CSc2cn(CC(=O)N(C(C)C)C(C)C)c3ccccc23)cc1 -4.21%
COC(=O)c1ccc(C(=O)OC)c(NC(=O)c2cc3nc(-c4ccc(C)cc4)cc(C(F)(F)F)n3n2)c1 -39.2%
CCCn1cnc2cc(NCc3ccccc3OCC)ccc21 -21.1%
CCn1c(C(=O)NCc2ccccc2Br)cc2oc3ccccc3c21 -15.9%
CCCNC(=O)Cn1c(=O)c2cccn2c2cccnc21 7.19%
CCCNC(=O)C1Cc2cc(S(=O)(=O)N3CCCCCC3)ccc2N1C(C)=O (stereo not given) -12.7%
COc1ccc(C(=O)NCc2ccc3c(c2)CCN3C(=O)c2ccccc2)cc1 -9.02%
COCCCNC(=O)c1sc2nc(C)c(C(=O)Nc3ccc(C)cc3C)c(-c3ccccc3Cl)c2c1N -13.2%
CCCNC(=O)CCCN1C(=O)CCn2nc(-c3cccn3C)cc21 -14.4%
CCc1ccc2oc(-c3ccc(NC(=O)c4cc5ccccc5o4)cc3)nc2c1 -13.6%
COCCNC(=O)c1nn(-c2ccc(C)cc2)c(=O)n(C)c1=O -7.92%
COc1ccc(NS(=O)(=O)c2ccc(-c3cnc(C4CC4)o3)cc2)cc1Cl -6.34%
Cc1ccc(Cl)cc1N1CCN(C(=O)c2ccc(CS(=O)c3ccccc3)o2)CC1 (stereo not given) 1.95%
Cc1cc(C)cc(Nc2cc(C(=O)NCCCN(C)C3CCCCC3)c3ccccc3n2)c1 -19%
O=C(CCSCc1cnn(-c2ccccc2)c1-n1cccc1)NCc1ccccc1Cl -15.5%
COCCNC(=O)CCc1c(C)n(C)c2cc(-c3cc(OC)c(OC)c(OC)c3)nn2c1=O 5.6%
CC1CCN(S(=O)(=O)c2ccc3nc(NCc4ccccc4)ccc3c2)CC1 0.392%
COc1ccc(C(CNC(=O)c2oc3cc(C)c(Cl)cc3c2C)N2CCCCC2)cc1 (stereo not given) -28.9%
COc1cccc(Nc2nc3ccccc3c3nncn23)c1 -9.99%
Cn1c(SCc2cc(=O)c3cc(Cl)ccc3[nH]2)nnc1-c1ccccc1 0.609%
Cn1c(=O)c(=O)n(C)c2cc(C(=O)NCc3ccccc3Cl)ccc21 -12.7%
O=C(Cn1nc(-c2ccc(Cl)cc2)c2ccccc2c1=O)Nc1cccc(C(F)(F)F)c1 -1.92%
COC(=O)c1scc(-c2ccc(C)cc2)c1S(=O)(=O)N1CCN(c2ccc(C)cc2C)CC1 -13.1%
